Measurements as given in PubChem BioAssay AID1030 (National Center for Advancing Translational Sciences (NCATS), 2008).
The whole screen tested about 220,000 compounds, of which about 16,000 (7.3%) were called active. Inconclusive means that the source gave no clear call. Such entries were picked first, then a sample of the others. The call rests on the fitted dose curve; in most records, active means well fitted inhibition curve with a large enough effect (not every such curve was filed as active); inconclusive means small, poorly fitted or top-dose-only effect, or another doubt; inactive means no such curve, though single readings can be large or run the other way. Potencies of inconclusive entries are left out as doubtful fits.

biological target: Aldehyde dehydrogenase 1A1 (Homo sapiens) (UniProt P00352); test: qHTS Assay for Inhibitors of Aldehyde Dehydrogenase 1 (ALDH1A1); details: Purified ALDH1A1, NADH fluorescence, propionaldehyde substrate; series mostly up to 75.3 µM; activity, negative = inhibition: at the top concentration;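 on activity, negative = inhibition: plate controls were no enzyme wells and a reference inhibitor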
Chain of UniProt P00352 (P00352 whole entry, looked up): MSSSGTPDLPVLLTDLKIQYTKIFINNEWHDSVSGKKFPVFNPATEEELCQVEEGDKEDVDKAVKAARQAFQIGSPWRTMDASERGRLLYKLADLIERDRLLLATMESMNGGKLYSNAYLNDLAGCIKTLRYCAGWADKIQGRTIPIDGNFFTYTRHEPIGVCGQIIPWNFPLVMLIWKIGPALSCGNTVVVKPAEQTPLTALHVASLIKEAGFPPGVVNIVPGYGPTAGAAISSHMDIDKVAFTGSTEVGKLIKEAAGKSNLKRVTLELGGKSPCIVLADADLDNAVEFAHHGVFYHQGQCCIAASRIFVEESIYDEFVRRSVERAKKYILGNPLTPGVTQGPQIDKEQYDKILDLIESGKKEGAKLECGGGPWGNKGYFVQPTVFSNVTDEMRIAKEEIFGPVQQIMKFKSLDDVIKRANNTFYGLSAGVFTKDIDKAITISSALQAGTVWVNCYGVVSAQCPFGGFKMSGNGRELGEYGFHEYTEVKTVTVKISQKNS
Potency means the concentration at half of the fitted maximal effect; tags describe the fitted curve by direction and shape.

Row | SMILES | Potency | activity, negative = inhibition
1 | CNC(=S)N1CCN(c2ccc([N+](=O)[O-])cc2)CC1 | inconclusive [inhibitor, single point] | –
2 | O=C(On1c(-c2ccccc2)nc2ccccc2c1=O)c1ccco1 | active: 8.91 µM | –
3 | CC1CCN(Cc2nnnn2-c2ccc(Cl)cc2)CC1 | inconclusive [inhibitor, single point] | –
4 | CCc1c(C)nc2ncnn2c1NCCc1ccc(OC)c(OC)c1 | – | inactive: -1.18%
5 | COc1ccc(O[C@H]2C=C[C@@H](c3ccccc3)O[C@H]2COC(=O)CC/C(C)=N\OC[C@@H](C)[C@H](OCc2ccccc2)C(C)C)cc1 | – | inactive: 1.32% [at 13.5 µM]
6 | CCCN1C(=O)S/C(=C\c2ccc(N3CCOCC3)o2)C1=O | active: 0.224 µM | –
7 | CCc1cccc(NC(=S)Nc2ccc(CN3CCOCC3)cc2)c1 | inconclusive [inhibitor, single point] | –
8 | Cc1ccc(S(=O)(=O)NCCC(=O)Nc2ccc(C)c(Cl)c2)cc1C | inconclusive [inhibitor, single point] | –
9 | Cc1cc(-c2nn(-c3ccccc3F)cc2CN2CCCC(CO)C2)c(C)s1 (stereo not drawn) | – | inactive: 9.82%
10 | COC(=O)C1=C(C)NC2=C(C(=O)CCC2)C1c1cccc(C)n1 (stereo not drawn) | inconclusive [inhibitor, partial curve] | –
11 | CC1(N2CCOCC2)CC2(O)C(=[N+]1[O-])CCc1nonc12 (stereo not drawn) | inconclusive [inhibitor, single point] | –
12 | Cc1ccccc1-c1nnc(SCCOc2ccc3c(C)cc(=O)oc3c2)o1 | inconclusive [inhibitor, partial curve] | –
13 | CCN1CCCc2cc(CN(CCN3CCOCC3)C(=O)Nc3ccc(C)c(C)c3)ccc21 | active: 28.2 µM | –
14 | Cc1cc(NC(=O)CCN2C(=O)C3C4CCC(C4)C3C2=O)cc(C)c1Br (stereo not drawn) | inconclusive [inhibitor, single point] | –
15 | CCOC(=O)c1ccc(N2Cc3ccccc3C2=NC(=O)c2ccncc2)cc1 | – | inactive: -5.57%
16 | O=C(Cc1cccs1)NCc1cn2ccccc2n1 | inconclusive [inhibitor, partial curve] | –
17 | CCN1C(=O)/C(=C2\SC(=S)N(c3c(C)n(C)n(-c4ccccc4)c3=O)C2=O)c2ccccc21 | inconclusive [inhibitor, partial curve] | –
18 | COc1cc(/C=C2/CCc3ccccc3C2=O)cc(OC)c1OC | inconclusive [inhibitor, single point] | –
19 | COc1ccc(-c2cc(C(=O)Nc3ccccc3SC)no2)cc1OC | inconclusive [inhibitor, partial curve] | –
20 | COc1ccnc(CS(=O)c2nc3ccc(OC(F)F)cc3[nH]2)c1OC (stereo not drawn) | inconclusive [inhibitor, single point] | –
21 | Nn1c(SCC(=O)NC(=O)NCc2ccccc2)nnc1C1CC1 | inconclusive [inhibitor, single point] | –
22 | CC(=O)N1N=C(c2ccco2)CC1c1cccs1 (stereo not drawn) | active: 3.55 µM | –
23 | COc1ccc(C(C)=O)cc1CSc1nc2ccccc2c(=O)n1-c1ccccc1C | inconclusive [inhibitor, single point] | –
24 | COc1ccc(-n2ncc3c(NCc4ccccn4)ncnc32)cc1 | inconclusive [inhibitor, partial curve] | –
25 | CCOC(=O)c1sc2nc(C)cc(C)c2c1N | inconclusive [inhibitor, partial curve] | –

Row | SMILES | Potency | activity, negative = inhibition
26 | CCOC(=O)c1c(NS(=O)(=O)c2cccc(OC)c2)sc2c1CCC2 | active: 10 µM | –
27 | O=[N+]([O-])c1ccc(/C([O-])=C(/C(=S)Nc2ccccc2F)[n+]2ccccc2)cc1 | inconclusive [inhibitor, single point] | –
28 | CCN(CC)C(=O)C1CCN(S(=O)(=O)c2cccc3nonc23)CC1 | inconclusive [inhibitor, single point] | –
29 | CCC(C)(C)c1nnc(NC(=O)c2cccc([N+](=O)[O-])c2)s1 | inconclusive [inhibitor, partial curve] | –
30 | O=C(COc1ccccc1[N+](=O)[O-])N1CCC(Cc2ccccc2)CC1 | – | inactive: -15%
31 | O=C(COC(=O)C(O)c1ccccc1)NC12CC3CC(CC(C3)C1)C2 (stereo not drawn) | active: 31.6 µM | –
32 | COc1ccc(Cc2nc(-c3cccs3)no2)cc1 | – | inactive: -0.824%
33 | COc1cccc(CN2CCN(Cc3cc(OC)c(OC)cc3[N+](=O)[O-])CC2)c1 | active: 25.1 µM | –
34 | O=C(NCCO)c1ccc2nc(-c3ccco3)c(-c3ccco3)nc2c1 | inconclusive [inhibitor, partial curve] | –
35 | Cc1cccc(-c2noc(-c3ccoc3C)n2)c1 | – | inactive: -0.0876%
36 | COc1ccc2nc(NC(=O)c3cccc(S(=O)(=O)N4CCOCC4)c3)sc2c1 | inconclusive [inhibitor, single point] | –
37 | COCCNC(=S)NC(=O)CC12CC3CC(CC(C3)C1)C2 | inconclusive [inhibitor, partial curve] | –
38 | O=C(NCc1ccco1)c1ccc(NC(=O)C2COc3ccccc3O2)cc1 (stereo not drawn) | inconclusive [inhibitor, single point] | –
39 | COC(=O)c1ccccc1NC(=O)NCc1ccccn1 | inconclusive [inhibitor, single point] | –
40 | O=C(CSc1c[nH]c2ccccc12)NCC1CCCO1 (stereo not drawn) | – | inactive: -4.8%
41 | Cc1ccc(NC(=O)CNC(c2ccccc2)c2ccccc2)c(F)c1 | – | inactive: -5.53%
42 | COc1ccc(Cl)c(NCCC(=O)O)c1 | – | inactive: 5.31%
43 | O=C(c1n[nH]c2ccccc12)N1CCN(S(=O)(=O)c2ccc3ccccc3c2)CC1 | inconclusive [inhibitor, single point] | –
44 | CC1=NN(c2ccccc2)C(=O)C1C=Nc1ccccc1O (stereo not drawn) | inconclusive [inhibitor, single point] | –
45 | Cc1cc(OCC(=O)Nc2ccc(S(=O)(=O)NC3=NCCCCC3)cc2)c(C(C)C)cc1Cl | – | inactive: -12.3%
46 | CCCCNC(=O)c1ccc(CNc2c(N3CCC(C(=O)OCC)CC3)c(=O)c2=O)cc1 | inconclusive [inhibitor, single point] | –
47 | Cc1ccc2cc(CCNC(=O)c3ccco3)c(=O)[nH]c2c1 | inconclusive [inhibitor, single point] | –
48 | Cn1c(O)c(N=Nc2nc(-c3ccccc3)cs2)c2ccccc21 | inconclusive [inhibitor, single point] | –
49 | Cn1c(=O)[nH]c(=O)c2c1nc(NCc1ccco1)n2Cc1ccccc1Cl | – | inactive: 16.3%
50 | CC(=O)c1ccc(NS(=O)(=O)c2cccc(C)c2)cc1 | inconclusive [inhibitor, single point] | –

Row | SMILES | Potency | activity, negative = inhibition
51 | N#CC1=C(N)SC(N)=C(C#N)C1C1C=CCCC1 (stereo not drawn) | active: 22.4 µM | –
52 | Cc1noc2ncnc(Oc3ccc(C(C)(C)C)cc3)c12 | inconclusive [inhibitor, single point] | –
53 | CCOc1ccc(NC(=S)Nc2cccnc2)cc1 | inconclusive [inhibitor, single point] | –
54 | CCOC(=O)C(CC)Sc1nc2c(c(=O)[nH]c(=O)n2C)n1C/C=C(/C)Cl (stereo not drawn) | active: 3.55 µM | –
55 | CCCCn1c(Oc2ccc(C(=O)OC)cc2)nc2c1c(=O)n(C)c(=O)n2C | inconclusive [inhibitor, partial curve] | –
56 | O=C(CN1CCCC1)Nc1ccc(-c2nc3cc(NC(=O)CN4CCCC4)ccc3o2)cc1 | inconclusive [inhibitor, partial curve] | –
57 | c1csc(C(c2nnnn2C2CCCCC2)N2CCN(c3nc4ccccc4s3)CC2)c1 (stereo not drawn) | – | inactive: -9.22%
58 | O=C(NCCCCNC(=O)c1ccco1)c1ccco1 | – | inactive: 1.92%
59 | CC(C)Cn1cnc2c(c1=O)c1nc3ccccc3nc1n2Cc1ccc2c(c1)OCO2 | active: 0.794 µM | –
60 | C[N+]1(CCN2C(=O)C3CC=C(Cl)CC3C2=O)CCOCC1 (stereo not drawn) | – | inactive: -2.03%
61 | CCOc1cc(C(=O)NC(=S)Nc2ccc(Cl)c(C(=O)O)c2)cc(OCC)c1OCC | active: 18.9 µM | –
62 | Cc1c(C(=O)NCc2cccnc2)oc2ccc(S(=O)(=O)N3CCCC(C)C3)cc12 (stereo not drawn) | – | inactive: -14.6%
63 | CCN(CCO)C1CC(=O)N(c2ccccc2C)C1=O (stereo not drawn) | active: 3.55 µM | –
64 | COc1ccc(Nc2nc3ccccc3n3cnnc23)cc1 | inconclusive [inhibitor, single point] | –
65 | O=c1[nH]c2ccc(Br)cc2c(-c2ccccc2)c1N1CCOCC1 | inconclusive [inhibitor, partial curve] | –
66 | Cc1nc2ccccc2nc1OCC(=O)N1CCN(c2ccccc2)CC1 | inconclusive [inhibitor, single point] | –
67 | COc1ccc(CCNC(=O)CCSc2nc(-c3ccco3)cc(C(F)(F)F)n2)cc1 | inconclusive [inhibitor, single point] | –
68 | COc1cc(/C=C/C(=O)Nc2nnc(CC(C)(C)C)s2)cc(OC)c1OC | inconclusive [inhibitor, partial curve] | –
69 | O=C(c1ccncc1)N1CCN(c2ccc3ccccc3n2)CC1 | inconclusive [inhibitor, single point] | –
70 | C#CC(=O)N(c1ccc(OC)cc1OC)C(C(=O)NC1CCCC1)c1cccs1 (stereo not drawn) | – | inactive: 2.22%
71 | COc1cccc(N(CC(=O)N2CCN(c3ccccc3OC)CC2)S(C)(=O)=O)c1 | – | inactive: 3.01%
72 | O=C1/C(=C/c2ccc(F)cc2)CCC1C1CCCC1 (stereo not drawn) | inconclusive [inhibitor, single point] | –
73 | Nc1ccc(N=Nc2ccccc2)c(N)c1 | inconclusive [inhibitor, partial curve] | –
